Results taken from PMC5062570 (Nature Communications, 2016).

Tests used:
[1] = molecular target: PF-7802-labelled proteins in ARPE-19 cells (Homo sapiens, UniProt P14678); settings: SNRPB Small nuclear ribonucleoprotein-associated proteins B and B' (P14678)
[2] = molecular target: PF-7802-labelled proteins in ARPE-19 cells (Homo sapiens, UniProt Q9NYU2); settings: UGGT1 UDP-glucose:glycoprotein glucosyltransferase 1 (Q9NYU2)
[3] = molecular target: T1, PF-7802-labelled proteins in ARPE-19 cells (Homo sapiens, UniProt P27824); settings: for Median SILAC Ratio (Heavy/Light): protein CANX Calnexin (P27824)
T1 sequence (P27824 21-592): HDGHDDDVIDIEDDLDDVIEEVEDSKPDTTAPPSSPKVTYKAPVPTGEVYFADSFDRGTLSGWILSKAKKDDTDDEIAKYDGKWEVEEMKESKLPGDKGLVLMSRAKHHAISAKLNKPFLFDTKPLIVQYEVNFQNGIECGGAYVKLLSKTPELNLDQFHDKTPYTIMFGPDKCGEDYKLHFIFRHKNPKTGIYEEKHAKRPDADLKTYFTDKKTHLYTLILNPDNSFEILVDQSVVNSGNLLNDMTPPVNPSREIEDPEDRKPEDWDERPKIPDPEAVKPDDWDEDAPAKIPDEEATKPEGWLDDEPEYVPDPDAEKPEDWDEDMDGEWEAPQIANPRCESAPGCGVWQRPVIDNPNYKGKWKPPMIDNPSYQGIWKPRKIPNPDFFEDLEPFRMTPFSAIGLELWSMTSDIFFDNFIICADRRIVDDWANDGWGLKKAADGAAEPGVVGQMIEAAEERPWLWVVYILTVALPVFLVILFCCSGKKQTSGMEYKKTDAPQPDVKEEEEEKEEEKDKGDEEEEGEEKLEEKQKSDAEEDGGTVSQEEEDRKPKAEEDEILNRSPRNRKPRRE

[4] = molecular target: PF-7802-labelled proteins in ARPE-19 cells (Homo sapiens, UniProt Q9Y2X3); settings: protein NOP58 Nucleolar protein 58 (Q9Y2X3); replicates in separate columns
[5] = molecular target: T2, PF-7802-labelled proteins in ARPE-19 cells (Homo sapiens, UniProt Q15417); settings: for Median SILAC Ratio (Heavy/Light): protein CNN3 Calponin-3 (Q15417)
T2 sequence (Q15417 1-329): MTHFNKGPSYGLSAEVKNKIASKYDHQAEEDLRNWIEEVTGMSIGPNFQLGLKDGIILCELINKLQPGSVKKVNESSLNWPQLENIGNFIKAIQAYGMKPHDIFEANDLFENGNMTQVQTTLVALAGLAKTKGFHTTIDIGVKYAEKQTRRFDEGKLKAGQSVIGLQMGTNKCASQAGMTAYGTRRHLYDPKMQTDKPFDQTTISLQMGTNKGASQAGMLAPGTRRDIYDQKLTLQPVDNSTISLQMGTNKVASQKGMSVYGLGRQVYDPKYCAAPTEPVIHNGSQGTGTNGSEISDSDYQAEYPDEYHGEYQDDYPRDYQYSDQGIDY

[6] = molecular target: PF-7802-labelled proteins in ARPE-19 cells (Homo sapiens, UniProt P46776)
[7] = molecular target: PF-7802-labelled proteins in ARPE-19 cells (Homo sapiens, UniProt P49821); settings: protein NDUFV1 NADH dehydrogenase [ubiquinone] flavoprotein 1, mitochondrial (P49821); replicates in separate columns
[8] = molecular target: T3, PF-7802-labelled proteins in ARPE-19 cells (Homo sapiens, UniProt P78371); settings: for Median SILAC Ratio (Heavy/Light): protein CCT2 T-complex protein 1 subunit beta (P78371)
T3 sequence (P78371 1-535): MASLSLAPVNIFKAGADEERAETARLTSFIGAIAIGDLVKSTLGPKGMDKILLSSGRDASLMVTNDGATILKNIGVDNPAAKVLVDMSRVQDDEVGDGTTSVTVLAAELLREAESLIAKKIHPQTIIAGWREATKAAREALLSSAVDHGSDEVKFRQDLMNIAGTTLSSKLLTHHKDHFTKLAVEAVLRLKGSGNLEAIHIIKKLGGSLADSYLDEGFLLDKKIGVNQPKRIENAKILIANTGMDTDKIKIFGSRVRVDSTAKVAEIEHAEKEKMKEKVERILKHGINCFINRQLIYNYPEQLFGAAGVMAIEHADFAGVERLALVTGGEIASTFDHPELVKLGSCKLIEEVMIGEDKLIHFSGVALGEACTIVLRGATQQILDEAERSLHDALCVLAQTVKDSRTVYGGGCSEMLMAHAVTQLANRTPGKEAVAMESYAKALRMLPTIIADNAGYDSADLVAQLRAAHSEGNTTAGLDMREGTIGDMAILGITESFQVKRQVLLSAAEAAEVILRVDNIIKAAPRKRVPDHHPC

[9] = molecular target: PF-7802-labelled proteins in ARPE-19 cells (Homo sapiens, UniProt P27635); settings: protein RPL10 60S ribosomal protein L10, P27635
[10] = molecular target: PF-7802-labelled proteins in ARPE-19 cells (Homo sapiens, UniProt P09382); settings: protein LGALS1 Galectin-1 (P09382); replicates in separate columns
[11] = molecular target: PF-7802-labelled proteins in ARPE-19 cells (Homo sapiens, UniProt Q15233); settings: protein NONO Non-POU domain-containing octamer-binding protein (Q15233); replicates in separate columns
[12] = molecular target: PF-7802-labelled proteins in ARPE-19 cells (Homo sapiens, UniProt Q01813); settings: protein PFKP 6-phosphofructokinase type C (Q01813); replicates in separate columns
[13] = molecular target: PF-7802-labelled proteins in ARPE-19 cells (Homo sapiens, UniProt P62263); settings: protein RPS14 40S ribosomal protein S14, P62263
[14] = molecular target: PF-7802-labelled proteins in ARPE-19 cells (Homo sapiens, UniProt P46781); settings: protein RPS9 40S ribosomal protein S9, P46781
[15] = molecular target: PF-7802-labelled proteins in ARPE-19 cells (Homo sapiens, UniProt P43243); settings: protein MATR3 Matrin-3 (P43243); replicates in separate columns
Chain of UniProt P43243 (P43243 whole entry): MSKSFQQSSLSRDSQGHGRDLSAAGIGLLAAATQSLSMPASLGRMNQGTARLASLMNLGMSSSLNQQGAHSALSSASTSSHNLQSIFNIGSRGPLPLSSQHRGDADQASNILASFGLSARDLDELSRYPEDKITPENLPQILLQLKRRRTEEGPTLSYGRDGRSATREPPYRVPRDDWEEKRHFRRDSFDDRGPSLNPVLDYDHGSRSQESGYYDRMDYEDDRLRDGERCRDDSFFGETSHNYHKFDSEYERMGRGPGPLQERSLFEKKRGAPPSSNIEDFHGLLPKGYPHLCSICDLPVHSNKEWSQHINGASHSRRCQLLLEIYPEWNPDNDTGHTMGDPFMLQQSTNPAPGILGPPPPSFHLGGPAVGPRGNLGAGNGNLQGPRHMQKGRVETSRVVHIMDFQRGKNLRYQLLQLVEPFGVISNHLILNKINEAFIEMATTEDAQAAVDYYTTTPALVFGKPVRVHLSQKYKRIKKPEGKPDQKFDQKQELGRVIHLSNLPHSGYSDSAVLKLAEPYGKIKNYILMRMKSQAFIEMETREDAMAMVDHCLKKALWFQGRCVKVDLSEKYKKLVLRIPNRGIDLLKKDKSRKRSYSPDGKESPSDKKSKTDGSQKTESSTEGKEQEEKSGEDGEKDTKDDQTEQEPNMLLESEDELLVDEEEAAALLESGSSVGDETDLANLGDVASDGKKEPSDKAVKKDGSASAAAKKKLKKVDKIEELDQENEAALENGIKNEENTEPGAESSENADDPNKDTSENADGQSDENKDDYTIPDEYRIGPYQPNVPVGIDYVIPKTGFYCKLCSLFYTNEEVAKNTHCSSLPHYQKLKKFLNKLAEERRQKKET

Chain of UniProt Q01813 (Q01813 whole entry): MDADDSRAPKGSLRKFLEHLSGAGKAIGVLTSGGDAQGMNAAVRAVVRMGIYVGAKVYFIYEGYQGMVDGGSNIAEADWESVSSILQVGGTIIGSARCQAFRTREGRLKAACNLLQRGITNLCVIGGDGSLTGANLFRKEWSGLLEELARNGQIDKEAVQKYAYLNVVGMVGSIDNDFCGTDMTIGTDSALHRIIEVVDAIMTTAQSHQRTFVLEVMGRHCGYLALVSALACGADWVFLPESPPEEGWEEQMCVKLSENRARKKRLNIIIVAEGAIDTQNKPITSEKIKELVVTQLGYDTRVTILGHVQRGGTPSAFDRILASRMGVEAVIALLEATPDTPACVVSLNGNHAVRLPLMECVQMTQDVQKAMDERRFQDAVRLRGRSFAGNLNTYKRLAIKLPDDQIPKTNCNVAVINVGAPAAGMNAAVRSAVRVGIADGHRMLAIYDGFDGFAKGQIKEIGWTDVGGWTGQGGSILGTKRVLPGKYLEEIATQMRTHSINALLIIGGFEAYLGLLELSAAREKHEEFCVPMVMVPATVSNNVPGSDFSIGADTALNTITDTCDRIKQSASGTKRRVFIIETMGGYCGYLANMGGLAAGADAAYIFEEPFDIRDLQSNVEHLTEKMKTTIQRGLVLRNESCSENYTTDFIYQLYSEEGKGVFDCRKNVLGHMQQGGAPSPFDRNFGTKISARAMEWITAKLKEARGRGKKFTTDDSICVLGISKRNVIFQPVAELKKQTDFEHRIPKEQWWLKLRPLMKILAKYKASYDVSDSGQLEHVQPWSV
Chain of UniProt Q15233 (Q15233 whole entry, the tested form may be a part): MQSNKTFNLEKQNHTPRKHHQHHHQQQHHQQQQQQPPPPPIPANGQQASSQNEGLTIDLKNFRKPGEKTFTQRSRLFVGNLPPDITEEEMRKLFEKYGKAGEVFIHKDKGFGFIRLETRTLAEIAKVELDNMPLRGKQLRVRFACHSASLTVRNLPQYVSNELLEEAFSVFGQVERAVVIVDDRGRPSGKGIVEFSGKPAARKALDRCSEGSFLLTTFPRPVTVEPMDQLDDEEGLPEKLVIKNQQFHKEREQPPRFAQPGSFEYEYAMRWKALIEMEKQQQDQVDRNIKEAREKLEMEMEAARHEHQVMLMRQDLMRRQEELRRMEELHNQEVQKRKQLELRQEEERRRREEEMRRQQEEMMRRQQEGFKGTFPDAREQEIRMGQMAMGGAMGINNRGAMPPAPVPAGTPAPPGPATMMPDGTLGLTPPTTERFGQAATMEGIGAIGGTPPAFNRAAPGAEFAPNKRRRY
Chain of UniProt P09382 (P09382 whole entry, the tested form may be a part): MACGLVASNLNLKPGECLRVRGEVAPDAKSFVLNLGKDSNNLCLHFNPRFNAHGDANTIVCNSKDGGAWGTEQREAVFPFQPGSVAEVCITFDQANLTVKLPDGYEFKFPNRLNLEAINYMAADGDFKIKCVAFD
Chain of UniProt Q9Y2X3 (Q9Y2X3 whole entry): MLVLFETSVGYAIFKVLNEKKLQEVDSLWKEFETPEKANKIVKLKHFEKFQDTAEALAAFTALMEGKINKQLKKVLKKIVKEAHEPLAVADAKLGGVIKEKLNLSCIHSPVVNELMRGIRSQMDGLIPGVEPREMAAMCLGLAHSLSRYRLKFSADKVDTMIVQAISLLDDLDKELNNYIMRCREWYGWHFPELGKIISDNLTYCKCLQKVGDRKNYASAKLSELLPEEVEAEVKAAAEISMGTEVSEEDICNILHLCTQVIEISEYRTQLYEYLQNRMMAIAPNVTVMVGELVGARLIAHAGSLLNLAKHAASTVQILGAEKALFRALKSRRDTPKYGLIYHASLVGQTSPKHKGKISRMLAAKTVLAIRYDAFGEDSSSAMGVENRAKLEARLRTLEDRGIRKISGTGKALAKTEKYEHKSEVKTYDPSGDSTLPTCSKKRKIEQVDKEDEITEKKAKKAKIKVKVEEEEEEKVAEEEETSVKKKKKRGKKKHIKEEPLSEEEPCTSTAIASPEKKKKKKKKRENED

Row | Compound | Median SILAC Ratio (Heavy/Light) [1] | Median SILAC Ratio (Heavy/Light) [2] | SILAC ratio (DMSO/CP-108671) ([3]; P27824 CANX Calnexin) | Median SILAC Ratio (Heavy/Light) [3] | Median SILAC Ratio (Heavy/Light) [4] | SILAC ratio (DMSO/CP-108671) ([5]; Q15417 CNN3 Calponin-3) | Median SILAC Ratio (Heavy/Light) [5] | Median SILAC Ratio (Heavy/Light) ([6]; protein RPL27A 60S ribosomal protein L27a, P46776) | Median SILAC Ratio (Heavy/Light) [7] | SILAC ratio (DMSO/CP-108671) ([8]; P78371 CCT2 T-complex protein 1 subunit beta) | Median SILAC Ratio (Heavy/Light) [8] | Median SILAC Ratio (Heavy/Light) [9] | Median SILAC Ratio (Heavy/Light) [10] | Median SILAC Ratio (Heavy/Light) [11] | Median SILAC Ratio (Heavy/Light) [12] | Median SILAC Ratio (Heavy/Light) [13] | Median SILAC Ratio (Heavy/Light) [14] | Median SILAC Ratio (Heavy/Light) [15] | Median SILAC Ratio (Heavy/Light) [6]
1 | CNC1CCN(C(=O)C[C@@H](Cc2ccccc2)C(=O)N[C@@H](CSC)C(=O)N[C@@H](CC2CCCCC2)[C@@H](O)C(=O)OC(C)C)CC1 [CP-108671, reference compound] | 1.054 | 0.883 | 0.96 | 1.045 | 0.8956 | 0.76 | 1.324 | 1.352 | 0.8453 | 0.67 | 1.5001 | 1.724 | 0.9189 | 0.9246 | 2.393 | 0.9556 | 1.945 | 1.1401 | 
2 | Cc1cc([C@H]2C[C@H]3[C@@H](C)SC(N)=N[C@@]3(c3ccc(F)cc3F)CO2)on1 [PF-9283] | 1.326 | 0.9773 |  | 1.369 | 1.104 |  | 1.3664 and 0.8422 and 1.24 |  | 0.7378 |  | 1.3273 | 1.431 and 2.456 | 0.7965 and 1.316 and 1.9 | 1.217 and 0.815 and 1.108 | 2.073 and 1.995 | 1.2146 and 0.9277 | 1.686 | 1.224 | 1.443 and 1.762

“And” between values parts separate entries of the source, which are not always exact repeats. Equal values may be shown once. Read-outs that look alike come from different tables or passages of the source.
